Measured values published in publication PMC12040169 (PLOS Biology, 2025).
The other results are listed elsewhere or left out.

What follows are molecules tested on T1, C. trachomatis L2/434/Bu expressing GFP (CTL2-GFP). Conditions: total inclusion area; 28.5 h, 10 µM; inhibitor.
T1 construct: L2/434/Bu GFP intracellular growth in HeLa cells
Design: species or system HeLa; C. trachomatis total inclusion area by high-content imaging, normalised to DMSO
In short: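 High-content imaging followed the bulk GFP/resorufin measurement: fixed, Hoechst-stained cells were scored for GFP inclusions and host nuclei per well. Total inclusion area and count served as growth proxies, nuclei number as the viability proxy. MIC calculation matched the bulk assay.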

Structure (SMILES)	% of control remaining
N/C(=N\OC(=O)COc1ccc2ccccc2c1)c1ccncc1 [CBK263737]	91.2331
CCCS(=O)(=O)n1c(=O)n(CC(=O)c2ccc(N(CC)CC)cc2)c2ccccc21 [CBK106504]	80.4955
Cc1cc2c(cc3c(=O)n(CC(=O)NC(C)(C)C)nc(C)n32)s1 [CBK284070]	84.1928
O=C(C1CC1)N1CCC(c2nnc(-c3ccsc3)o2)CC1 [CBK283376]	89.5087
O=C(Nc1ccc(Br)cc1)C1CCCN1S(=O)(=O)c1ccc(Cl)cc1 (centres unmarked) [CBK155481]	109.521
COc1ccccc1-c1nnc(NCc2ccc3c(c2)OCO3)nc1-c1ccccc1OC [CBK286284]	87.9531
O=C(CCC(=O)OCN1C(=O)c2ccccc2C1=O)Nc1ccc2ccccc2c1 [CBK265277]	106.047
CC(C)N(C(=O)N1CCC2(CC1)CC(=O)c1ccccc1O2)C(C)C [CBK284010]	84.5129
O=C(O)c1cc(-n2c(S)nnc2-c2ccc3ccccc3n2)ccc1Cl [CBK269512]	80.4098
O=C(O)/C(O)=C/C(=O)c1ccc(Cl)cc1 [CBK261841]	95.5635
CC(=O)Nc1nc(OCCN2CCCC2=O)cnc1/C=C\c1ccccc1 [CBK145371]	95.7094
C=CCNC(=O)C1(Cc2ccccc2-c2cccnc2)CCOCC1 [CBK285217]	74.7928
Cc1csc2c(N3CCCC3CC(O)c3cnn(C)c3)ncnc12 (centres unmarked) [CBK304477]	41.1049
CCN1CCCc2cc(-c3cncn3CCCn3ccnc3C)ccc21 [CBK281810]	98.0733
Cc1ccc(C2(O)CCN(Cc3c(C)nc4cc(C)ccn34)CC2)cc1 [CBK282733]	114.568
Cc1cc(Cl)c(S(=O)(=O)NCc2ccccc2)cc1OCC(N)=O [CBK266588]	123.482
CCC(Cc1c[nH]c2ccccc12)NC(=N)N (centres unmarked) [CBK010430]	87.389
Cc1cc(C(=O)NCCn2ccnc2C)nc2ccccc12 [CBK281894]	95.3268
Cc1cc(O)cc(O)c1/C=N\NC(=O)C1COc2cc3ccccc3cc2O1 (centres unmarked) [CBK262809]	103.469
COc1ccc(-c2oc(C(=O)N(C)C)c(C(=O)O)c2-c2ccc(OC)cc2)cc1 [CBK001958]	97.0534
CCOC(=O)CNS(=O)(=O)c1ccc(Cl)c(Cl)c1Cl [CBK034428]	52.6549
O=C(Nc1sc2c(c1C(=O)NCc1cccnc1)CCCC2)c1ccc(Cl)cc1 [CBK265498]	80.2208
O=C(NC1CCCc2c1cnn2-c1ccc(F)cc1)c1ccncc1 (centres unmarked) [CBK283929]	95.1071
O=C(NCc1ccccc1OC1CCNC1)C1CCCO1 (centres unmarked) [CBK024503T]	87.9173
Cc1nc2ccc(C(=O)NC(C)c3ccccn3)cc2s1 (centres unmarked) [CBK281890]	89.1419
CCN1CCN(C(=O)CN(Cc2ccccc2)S(C)(=O)=O)CC1 [CBK266735]	77.7838
CC(=O)c1cccc(NC(=O)N(CCO)C2CCCc3ccccc32)c1 (centres unmarked) [CBK305195]	88.7473

Structure (SMILES)	% of control remaining
CNC(=O)c1cc(NC(=O)NCC2CC(=O)N(CCOC)C2)ccc1F (centres unmarked) [CBK304403]	75.9493
N#C/C(=C/c1ccccc1OCc1cccc([N+](=O)[O-])c1)c1ccc(C(=O)O)cc1 [CBK268748]	106.642
O=C(NCc1ccc(Cl)cc1)c1c(O)c2cc(NS(=O)(=O)c3ccccc3)ccc2[nH]c1=O [CBK017589]	95.3674
CSc1nsc(SCC(=O)Nc2ccc3c(c2)OCO3)n1 [CBK270044]	89.3425
O=C(O)CCC(=O)NCC(=O)c1ccc(F)cc1 [CBK057384]	57.7105
COc1ccc(OC)c(-c2nc(Nc3ccccc3Cl)sc2CC(=O)O)c1 [CBK264190]	101.207
COc1ccc(-c2cnc(N3CCOCC3)c3nccn23)cc1 [CBK091285]	107.952
Nc1c(C(=O)c2ccc3c(c2)OCO3)sc2nc(-c3cccnc3)ccc12 [CBK270186]	95.2646
CN1CCC(N2CCN(C(=O)c3ccc(-c4ccc(OC(F)(F)F)cc4)nc3)CC2)CC1 [CBK156206]	83.3521
CCOc1ccc(Oc2ccc(C(F)(F)F)cc2NC(=O)CCCC(=O)O)cc1 [CBK296993]	81.5243
CC(=O)N[C@H]1CC[C@]2(C)CCC([C@H](C)C(=O)NC3CC3)[C@H](O)[C@H]2[C@@H]1C (some centres unmarked) [CBK289437]	94.1317
Cc1ccc(NC(=O)c2nc(-c3ccc(C(=O)N4CCOCC4)cc3)cnc2N)c(O)c1 [CBK149152]	12.5953
COc1ccccc1-n1nc(CC(C)C)nc1C(C)NS(C)(=O)=O (centres unmarked) [CBK306660]	56.9521
CN(C)CCCN1CCCC2(CCN(C(=O)c3cc(F)c(F)cc3F)C2)C1 (centres unmarked) [CBK132005]	78.7349
Cc1ccc2cc(CN(CCN(C)C)C(=S)Nc3ccccc3)c(=O)[nH]c2c1 [CBK134909]	51.6095
CC(C(=O)NC1CCCN(CC(F)(F)F)C1)n1cnc2ccccc21 (centres unmarked) [CBK304185]	40.2325
COc1ccc(Nc2ncnc3oc(C)c(C)c23)cc1 [CBK288163]	102.274
NC1=NC(c2ccc3c(c2)OCO3)n2c(nc3ccccc32)N1 (centres unmarked) [CBK269906]	89.6246
CS(=O)(=O)N1CCC(Oc2nccnc2OCc2ccc(Cl)c(Cl)c2)CC1 [CBK144910]	101.251
Nn1c(-c2cccs2)nc2ccccc2c1=O [CBK003650]	46.0986
CN(C(=O)c1c[nH]nc1C1CCCN(Cc2cc3ccccc3o2)C1)C1CCCCC1 (centres unmarked) [CBK286492]	101.678
COc1cccc(C2SCC(=O)Nc3[nH]nc(C)c32)c1 (centres unmarked) [CBK287981]	103.714
O=C(O)C(Cc1c[nH]c2ccccc12)NCC1CCCCC1 (centres unmarked) [CBK287238]	91.9908
Cc1nn(Cc2ccc(F)cc2)c(=O)c2cc3sccc3n12 [CBK284059]	77.0356
CCN(CC)CCCCSc1ccc(O)cc1 [CBK261785C]	96.408
CSCCCNC(=O)C1(c2ccccc2)CCCC1 [CBK149526]	93.0825
O=C(Nc1ccc(S(=O)(=O)NCCc2ccccc2)cc1)c1ccncc1 [CBK268172]	79.5624

Structure (SMILES)	% of control remaining
CC(C)(C)c1cc(C[C@H]2CNCC[C@H]2CC(=O)N2CCN(c3ccc(F)cc3)CC2)no1 [CBK288800]	105.22
Cc1ccc(S(=O)(=O)Nc2ccccc2C(=O)O)cc1[N+](=O)[O-] [CBK042374]	79.4057
CCc1ccccc1NC(=O)Cn1ncnc1Sc1nc2c(c(=O)n(C)c(=O)n2C)n1C [CBK265963]	79.7856
CN(C)CCC1CCCCN1C(=O)C1C2CCCCC21 (centres unmarked) [CBK282055]	130.732
Cc1ccc(C(=O)C(NC(=O)c2cccs2)Nc2ccc(S(N)(=O)=O)cc2)cc1 (centres unmarked) [CBK264897]	103.169
CSc1[nH]nc(N)c1-c1ccc([N+](=O)[O-])cc1 [CBK016751]	97.8774
CCc1cccc2c(CC(=O)NCCn3ccc(C)n3)c(C)[nH]c12 [CBK282698]	115.534
CC1(C)C(=O)N2CCN=C2c2ccccc21 [CBK009903]	81.5198
c1cnc(OC2CCN(CC3CCCCC3)CC2)c(OC2CCCCC2)n1 [CBK082879T]	85.0896
CC(SCCc1ccccn1)C(=O)O (centres unmarked) [CBK026572]	63.5405
O=C(NCc1ccccc1)C(Cc1ccc([N+](=O)[O-])cc1)N1C(=O)c2ccccc2C1=O (centres unmarked) [CBK261279]	94.3017
COc1ccccc1C(=O)N1CCN(Cc2cc(OC)c(O)c(OC)c2)CC1 [CBK263484]	102.236
Nc1nc(N)c2cccc(F)c2n1 [CBK025945]	90.4728
O=C(O)CCCC(=O)Nc1ccc([N+](=O)[O-])cc1O [CBK267384]	104.814
CCCCN1CCC(CNc2nccc3sc(S(=O)(=O)NC4CCC4)cc23)CC1 [CBK038275C]	97.9106
Cc1ccccc1S(=O)(=O)N(c1ccc(C(C)(C)C)cc1)C1CCNCC1 [CBK165074T]	95.2449
CC(CNC(=O)c1cccn(CC(=O)Nc2ccc(F)cc2)c1=O)N1CCCCCC1 (centres unmarked) [CBK286123]	111.605
CN1CCN(CC(=O)Nc2sc3c(c2C(=O)NCc2ccccc2)CCCC3)CC1 [CBK268207]	86.8727
CC1CCCCN1C(=O)CCn1c(-c2cccnc2)cc2cccnc21 (centres unmarked) [CBK282692]	107.689
O=C(O)c1cccc(NC(=O)c2c(C(=O)O)cccc2[N+](=O)[O-])c1 [CBK261096]	104.848
COc1cc(C(O)CNC(=O)c2cnc(-c3ccc(F)cc3)c(-c3cccc(N)c3)c2)ccc1O (centres unmarked) [CBK038032]	69.5507
OCCOc1cccc(-c2nnco2)c1 [CBK000033]	99.334
Cc1oc2[nH]c(CN(C)CCOc3ccc(Cl)cc3)nc(=N)c2c1C(=O)O [CBK279463]	113.956
Fc1ccc(CCNc2ccc3nncn3n2)cc1 [CBK287909]	92.4394
CC(NC(=O)C1CCN(Cc2cccs2)CC1)c1ccc(F)cc1 (centres unmarked) [CBK148041]	121.859
O=C1CC(C(=O)N2CCc3ncc(Cl)cc3C2)c2ccccc2N1 (centres unmarked) [CBK284976]	112.161
